Results on eleven compounds are retold here after ChEMBL document CHEMBL1139349, “Fast three dimensional pharmacophore virtual screening of new potent non-steroid aromatase inhibitors” (J Med Chem, 2009).

Data set [1] deals with T1, Aromatase (Homo sapiens, UniProt P11511).
T1 sequence (P11511 whole entry): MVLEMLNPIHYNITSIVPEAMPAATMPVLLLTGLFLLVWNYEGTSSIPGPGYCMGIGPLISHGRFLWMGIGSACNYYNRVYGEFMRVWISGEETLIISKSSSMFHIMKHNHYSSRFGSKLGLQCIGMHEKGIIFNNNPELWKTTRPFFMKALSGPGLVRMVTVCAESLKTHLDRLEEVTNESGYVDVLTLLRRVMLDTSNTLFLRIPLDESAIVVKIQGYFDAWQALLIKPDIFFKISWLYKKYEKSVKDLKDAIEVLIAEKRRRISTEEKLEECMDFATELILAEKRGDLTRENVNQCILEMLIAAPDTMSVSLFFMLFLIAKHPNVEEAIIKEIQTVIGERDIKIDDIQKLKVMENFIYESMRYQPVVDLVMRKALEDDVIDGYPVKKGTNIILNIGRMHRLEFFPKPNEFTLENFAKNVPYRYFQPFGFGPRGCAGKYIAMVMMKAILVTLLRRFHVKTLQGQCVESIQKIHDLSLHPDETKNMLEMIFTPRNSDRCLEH
The data set can be described thus: in vitro.

The target of data set [2] is T1, Aromatase.

Each structure is given as a SMILES string.

`O=c1ccc2ccc(Cn3cncn3)cc2o1` showed an inhibition at 36 µM at Aromatase [1] of 60%.
Consider `c1ccc(C2(n3ccnn3)c3ccccc3-c3ccccc32)cc1`, for which testing at 36 µM against Aromatase [1] gave an inhibition of 30%.
For the compound `COc1ccc2c(c1)CCC(CC1C=NC=N1)=C2C` (stereo unspecified), it took 17 µM to reach half-maximal inhibition at Aromatase [2] (IC50).
The same measure, in the same setting: for `COc1ccc(-c2cnnn2Cc2ccco2)cc1` the value was 3.1 µM.
At Aromatase [2], `c1ccc(-c2cc(-c3cccnc3)nc(-c3cccnc3)c2)cc1` showed a half-maximal inhibitory concentration (IC50) of 46.7 µM.
Same read-out and setting: with `O=[N+]([O-])c1cccc(Cc2nncc3ccccc23)c1` the figure was 37.6 µM.
In turn, `COc1ccc2c(Cc3cccc([N+](=O)[O-])c3)cncc2c1O` had an IC50 on Aromatase [2] of 1.4 µM.
`COc1ccc(-c2cc3c(=O)cc(O)oc3cc2SCc2ccncc2)cc1` gave an IC50 at Aromatase [2] of 0.22 µM.
The compound `COc1ccc(/C(=N/Nc2cnnc(Cl)c2Cl)c2ccccc2)cc1` had an IC50 against Aromatase [2] of 5.6 µM.
Regarding `COc1ccc2c(Cc3ccc(O)cc3)cncc2c1O`, the half-inhibitory concentration (IC50) on Aromatase [2] came out at 29.8 µM.
Same read-out and setting: for `O=[N+]([O-])c1ccc2c(c1)nc(-c1ccccn1)n2CCc1ccncc1` the value was 2.1 µM.
